# The supplement of paper PMC8728848
# This is one part of the list.
# What was measured:
# Assay in all cases: glycan array binding signal (z-score within array); higher = stronger binding
# Conditions in all cases: glycan notation: IUPAC condensed, linker removed
# [1] = target: GalNAc(b1-3)GalNAc
# Summary of the method: (§1)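 Glycan array data were curated from 3228 arrays in the Consortium for Functional Glycomics database and kept only where the protein sequence was available. Glycan names were converted to IUPAC-condensed notation, and columns mapping to the same glycan were averaged. The binding signal is a within-array Z-score, averaged across arrays of the same protein sequence at different concentrations or buffers and across linkers. Negative Z-scores can be read as non-binding.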
# [2] = target: GalNAc(b1-3)GlcNAc
# Summary of the method: as §1
# [3] = target: GalNAc(b1-4)Gal(b1-4)Glc
# Summary of the method: as §1
# [4] = target: GalNAc(b1-4)GlcNAc
# Summary of the method: as §1
# [5] = target: GalNAc(b1-4)GlcNAc(b1-2)Man
# Summary of the method: as §1
# [6] = target: GalNAc(b1-4)GlcNAc(b1-2)Man(a1-3)[GalNAc(b1-4)GlcNAc(b1-2)Man(a1-6)]Man(b1-4)GlcNAc(b1-4)GlcNAc
# Summary of the method: as §1
# [7] = target: GalNAc(b1-4)GlcNAc(b1-3)GalNAc(b1-4)GlcNAc
# Summary of the method: as §1
# [8] = target: GalNAc(b1-4)GlcNAc6S
# Summary of the method: as §1
# [9] = target: GalNAc(b1-6)GalNAc
# Summary of the method: as §1
# [10] = target: GalNAc3S(b1-4)GlcNAc
# Summary of the method: as §1
# [11] = target: GalNAc3S(b1-4)GlcNAc3S
# Summary of the method: as §1
# [12] = target: GalNAc3S(b1-4)[Fuc(a1-3)]GlcNAc
# Summary of the method: as §1
# [13] = target: GalNAc4S6S(b1-4)GlcNAc
# Summary of the method: as §1
# [14] = target: GalNAc6S(b1-4)GlcNAc
# Summary of the method: as §1
# [15] = target: Glc(a1-2)Glc(a1-3)Glc(a1-3)Man(a1-2)Man(a1-2)Man(a1-3)[Man(a1-2)Man(a1-3)[Man(a1-2)Man(a1-6)]Man(a1-6)]Man(b1-4)GlcNAc
# Summary of the method: as §1
# [16] = target: Glc(a1-2)Glc(a1-3)Glc(a1-3)Man(a1-2)Man(a1-2)Man(a1-3)[Man(a1-3)[Man(a1-6)]Man(a1-6)]Man(b1-4)GlcNAc
# Summary of the method: as §1
# [17] = target: Glc(a1-3)Glc(a1-3)Man(a1-2)Man(a1-2)Man(a1-3)[Man(a1-2)Man(a1-3)[Man(a1-2)Man(a1-6)]Man(a1-6)]Man(b1-4)GlcNAc(b1-4)GlcNAc
# Summary of the method: as §1
# [18] = target: Glc(a1-3)Glc(a1-3)Man(a1-2)Man(a1-2)Man(a1-3)[Man(a1-3)[Man(a1-6)]Man(a1-6)]Man(b1-4)GlcNAc
# Summary of the method: as §1
# [19] = target: Glc(a1-3)Man(a1-2)Man(a1-2)Man(a1-3)[Man(a1-2)Man(a1-3)[Man(a1-2)Man(a1-6)]Man(a1-6)]Man(b1-4)GlcNAc(b1-4)GlcNAc
# Summary of the method: as §1
# [20] = target: Glc(a1-4)Glc
# Summary of the method: as §1
# [21] = target: Glc(a1-4)Glc(a1-4)Glc(a1-4)Glc
# Summary of the method: as §1
# [22] = target: Glc(a1-6)Glc(a1-6)Glc
# Summary of the method: as §1
# [23] = target: Glc(a1-6)Glc(a1-6)Glc(a1-6)Glc
# Summary of the method: as §1
# [24] = target: Glc(a1-6)Glc(a1-6)Glc(a1-6)Glc(a1-6)Glc(a1-6)Glc
# Summary of the method: as §1
# [25] = target: Glc(b1-3)Glc(b1-3)Glc(b1-3)Glc(b1-3)Glc(b1-3)Glc
# Summary of the method: as §1
# [26] = target: Glc(b1-4)Glc
# Summary of the method: as §1
# [27] = target: Glc(b1-6)Glc
# Summary of the method: as §1
# [28] = target: Glc(b1-6)Glc(b1-6)Glc(b1-6)Glc(b1-6)Glc(b1-6)Glc
# Summary of the method: as §1
# [29] = target: GlcA(b1-3)Gal
# Summary of the method: as §1
# [30] = target: GlcA(b1-3)GlcNAc
# Summary of the method: as §1
# [31] = target: GlcA(b1-3)GlcNAc(b1-4)GlcA(b1-3)GlcNAc(b1-4)GlcA(b1-3)GlcNAc(b1-4)GlcA(b1-3)GlcNAc(b1-4)GlcA(b1-3)GlcNAc(b1-4)GlcA(b1-3)GlcNAc(b1-4)GlcA(b1-3)GlcNAc(b1-4)GlcA(b1-3)GlcNAc
# Summary of the method: as §1
# [32] = target: GlcA(b1-6)Gal
# Summary of the method: as §1
# [33] = target: GlcA3S(b1-3)Gal(b1-4)GlcNAc(b1-2)Man
# Summary of the method: as §1
# [34] = target: GlcA3S(b1-3)Gal(b1-4)GlcNAc(b1-3)Gal(b1-4)Glc
# Summary of the method: as §1
# [35] = target: GlcNAc(a1-3)Gal(b1-4)GlcNAc
# Summary of the method: as §1
# [36] = target: GlcNAc(a1-4)Gal(b1-3)GlcNAc
# Summary of the method: as §1
# [37] = target: GlcNAc(a1-4)Gal(b1-4)GalNAc
# Summary of the method: as §1
# [38] = target: GlcNAc(a1-4)Gal(b1-4)GlcNAc
# Summary of the method: as §1
# [39] = target: GlcNAc(a1-4)Gal(b1-4)GlcNAc(b1-3)Gal(b1-4)Glc
# Summary of the method: as §1
# [40] = target: GlcNAc(a1-4)Gal(b1-4)GlcNAc(b1-3)Gal(b1-4)GlcNAc
# Summary of the method: as §1
# [41] = target: GlcNAc(a1-4)Gal(b1-4)GlcNAc(b1-3)Gal(b1-4)GlcNAc(b1-3)Gal(b1-4)GlcNAc
# Summary of the method: as §1
# [42] = target: GlcNAc(a1-4)Gal(b1-4)GlcNAc(b1-3)Gal(b1-4)[Fuc(a1-3)]GlcNAc(b1-3)Gal(b1-4)[Fuc(a1-3)]GlcNAc
# Summary of the method: as §1
# [43] = target: GlcNAc(a1-6)Gal(b1-4)GlcNAc
# Summary of the method: as §1
# [44] = target: GlcNAc(b1-2)Gal(b1-3)GalNAc
# Summary of the method: as §1
# [45] = target: GlcNAc(b1-2)Man(a1-3)[GlcNAc(b1-2)Man(a1-6)]Man(b1-4)GlcNAc(b1-4)GlcNAc
# Summary of the method: as §1
binder,measurement,setting,value
Banana lectin (Musa acuminata) (protein) MNGAIKVGAWGGNGGSAFDMGPAYRIISVKIFSGDVVDGVDVTFTYYGKTETRHYGGSGGTPHEIVLQEGEYLVGMAGEVANYHGAVVLGKLGFSTNKKAYGPFGNTGGTPFSLPIAAGKISGFFGRGGKFLDAIGVYLEPLEHHHHHH,glycan array binding signal (z-score),[1],-0.221
same,glycan array binding signal (z-score),[2],-0.193
same,glycan array binding signal (z-score),[3],-0.153
same,glycan array binding signal (z-score),[4],-0.198
same,glycan array binding signal (z-score),[5],-0.207
same,glycan array binding signal (z-score),[6],-0.18
same,glycan array binding signal (z-score),[7],-0.261
same,glycan array binding signal (z-score),[8],-0.209
same,glycan array binding signal (z-score),[9],-0.221
same,glycan array binding signal (z-score),[10],-0.23
same,glycan array binding signal (z-score),[11],-0.196
same,glycan array binding signal (z-score),[12],-0.178
same,glycan array binding signal (z-score),[13],-0.203
same,glycan array binding signal (z-score),[14],-0.054
same,glycan array binding signal (z-score),[15],1.56
same,glycan array binding signal (z-score),[16],1.31
same,glycan array binding signal (z-score),[17],1.42
same,glycan array binding signal (z-score),[18],0.946
same,glycan array binding signal (z-score),[19],1.43
same,glycan array binding signal (z-score),[20],-0.155
same,glycan array binding signal (z-score),[21],-0.205
same,glycan array binding signal (z-score),[22],-0.209
same,glycan array binding signal (z-score),[23],-0.188
same,glycan array binding signal (z-score),[24],1.57
same,glycan array binding signal (z-score),[25],-0.842
same,glycan array binding signal (z-score),[26],-0.206
same,glycan array binding signal (z-score),[27],-0.204
same,glycan array binding signal (z-score),[28],-0.99
same,glycan array binding signal (z-score),[29],-0.191
same,glycan array binding signal (z-score),[30],-0.202
same,glycan array binding signal (z-score),[31],-0.99
same,glycan array binding signal (z-score),[32],-0.195
same,glycan array binding signal (z-score),[33],-0.202
same,glycan array binding signal (z-score),[34],-0.216
same,glycan array binding signal (z-score),[35],0.842
same,glycan array binding signal (z-score),[36],0.861
same,glycan array binding signal (z-score),[37],0.095
same,glycan array binding signal (z-score),[38],0.495
same,glycan array binding signal (z-score),[39],0.518
same,glycan array binding signal (z-score),[40],0.681
same,glycan array binding signal (z-score),[41],0.556
same,glycan array binding signal (z-score),[42],0.311
same,glycan array binding signal (z-score),[43],-0.224
same,glycan array binding signal (z-score),[44],-0.212
same,glycan array binding signal (z-score),[45],0.105
